# Laboratory results published in PMC12136788.
# This is one part of the list.
# T1: UNK ZnF1-6 (called full-length) (human, UniProt Q9C0B0 30-357)
# T1 sequence: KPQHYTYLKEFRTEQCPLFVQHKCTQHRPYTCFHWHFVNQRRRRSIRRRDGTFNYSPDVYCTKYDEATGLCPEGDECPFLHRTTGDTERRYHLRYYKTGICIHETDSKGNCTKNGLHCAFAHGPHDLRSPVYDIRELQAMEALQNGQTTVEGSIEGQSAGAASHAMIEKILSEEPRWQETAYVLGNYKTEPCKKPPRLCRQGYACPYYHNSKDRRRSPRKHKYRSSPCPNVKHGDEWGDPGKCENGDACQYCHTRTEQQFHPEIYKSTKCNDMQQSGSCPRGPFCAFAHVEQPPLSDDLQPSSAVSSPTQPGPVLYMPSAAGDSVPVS
# B1: chr3:25596636:25596694:+|3pUTR|ENSG00000077092|msi1_unk|FALSE|overlapping (ssRNA)
# RNA: GGGAGUUCUACAGUCCGACGAUCUCCCCAGUACCUUCAGUUCCAGGAUUUAAAAUGCAAGAAAAAACAUUUUUACUGCUGCUUAGUUUUUGGACUGAAAAGAUAUUAAAACUCAAGAAGGACCAAGAAGUUUUCAUAUGUAUCCAACAGAGGAUUGAGCAUCA
# B2: ENSG00000149257:stop:overlap|stop_codon|ENSG00000149257|stop_codon|NA|stop_codon (ssRNA)
# RNA: GGGAGUUCUACAGUCCGACGAUCCCCUGCUAUUCAUUGGGCGCCUGGUCCGGCCUAAGGGUGACAAGAUGCGAGACGAGUUAUAGGGCCUCAGGGUGCACACAGGAUGGCAGGAGGCAUCCAAAGGCUCCUGAGACACAUGGGCAACAGAGGAUUGAGCAUCA
# B3: chr1:24839915:24840022:+|CDS|ENSG00000169504|unk|total|mutant (ssRNA)
# RNA: GGGAGUUCUACAGUCCGACGAUCACCCUGCAGAAACUGGAUGAAUAUCUGAAUUCUCCUCUCCCUGAUGAAAUUGAUGAAAACCGUAUGGAGGACAUAAAGUUUUCUACACGUAAAUUUCUGGAUGGCAAUGAAAUGACAUUACAACAGAGGAUUGAGCAUCA
# B4: chr11:36273890:36273991:-|3pUTR|ENSG00000110442|msi1|FALSE|unique (ssRNA)
# RNA: GGGAGUUCUACAGUCCGACGAUCGGUGAAGAAGUGGGAAUAAUUGGAACUAAACAACAGUUCUAAAACUUCCAUGAUUUUUGUAGCUUCUUUUGUCCCCAAGUUGAAGCUUUUGGCCAGUACCUUCUCUAGUUUUUAAAGAUGCAACAGAGGAUUGAGCAUCA
# B5: chr10:62095068:62095169:+|3pUTR|ENSG00000150347|msi1|FALSE|unique (ssRNA)
# RNA: GGGAGUUCUACAGUCCGACGAUCCCAUUUGCUUCAAUUAAUUAUUUACCUUCCUGUGGAAUAAUAUAUAUAUAUAUAUUUAAUAGAACCAUAGAUAGACUAGUAGAAUUUAGAUUAUAAAUGUGUGAGUGCAGAUUAUCCUGCCAACAGAGGAUUGAGCAUCA
# B6: chr20:54218986:54219149:+|CDS|ENSG00000101132|unk|total|mutant (ssRNA)
# RNA: GGGAGUUCUACAGUCCGACGAUCAAAUUUGCAAGAAGAAAUUGACGCCUCCGAAUCCAGAGUGGAAUCAAUUCAGCGAGUGUCCGCAGAUUUGAAAGUUCAGUUGUAUGCAAAAUUCGGGAGCAACAUAAACCUUGAAGCUGACAACAGAGGAUUGAGCAUCA
# B7: chr3:21421216:21421447:-|CDS|ENSG00000151789|control|control|control (ssRNA)
# RNA: GGGAGUUCUACAGUCCGACGAUCAUUAGUAUUUUCAAAAGAACCUUCAAAGCCAUUGGCUCCACGAAUUCUACCAAAUCCUCUAGCAGCUGCAGCAGCCGCAGCAGCAGUGGCAGUGAGUUCCCCCUUCAGUCUUCGAACUGCCAACAGAGGAUUGAGCAUCA
# B8: chr18:55223968:55224079:-|3pUTR|ENSG00000196628|unk|FALSE|unique (ssRNA)
# RNA: GGGAGUUCUACAGUCCGACGAUCUAUAAAGCUUUGUUUGUCUAGUGCUCUUUUGCUAUAAAAUAGACUGUAGUACACCCUAGUAGGAAAAAAAAAAAACUAAAUUUAAAAAUAAAAAAUAUAUUUGGCUUAUUUUUCGCAGGACAACAGAGGAUUGAGCAUCA
# B9: chr7:76302746:76302847:+|CDS|ENSG00000106211|unk|total|mutant (ssRNA)
# RNA: GGGAGUUCUACAGUCCGACGAUCGUCCCCUUCUCGCUCCUGCGGGGCCCCAGCUGGGACCCCUUCCGCGACUGGUACCCGCACCGCCGCCUCUUCGACCAGGCCUUCGGGCUGCCCCGGCUGCCGGAGGAGUGGUCGCAGUGGCAACAGAGGAUUGAGCAUCA
# B10: chr8:143803364:143803465:-|CDS|ENSG00000180900|msi1|total|mutant (ssRNA)
# RNA: GGGAGUUCUACAGUCCGACGAUCACCCUCACCGUGCUGGUCUGUGACGGCUUUGAGGCCAGCACCGACGCAGCCCUGGAGGUCCGCGAUCCCGCCCCGGGGACCGGGCCUCCCUCUGGCCCAGCCCAAGGUGUUGUGAGCCGCCAACAGAGGAUUGAGCAUCA
# B11: chr3:58425360:58425463:+|3pUTR|ENSG00000168297|unk|FALSE|unique (ssRNA)
# RNA: GGGAGUUCUACAGUCCGACGAUCAGACAGCUCCUAGAAACAUUCCUCUUACAGUUCAUUUCUCUAAAGCAUUUUCUGAUUCUUAGAUAACUCCAAUUUUUGCUACCUUUAUCUUAGACAUUAACACUAUAGCCCAAAGCAUAGCAACAGAGGAUUGAGCAUCA
# B12: ENSG00000198589:be:win_6551|CDS|ENSG00000198589|bound_else_gene|NA|bound_elsewhere_windowed (ssRNA)
# RNA: GGGAGUUCUACAGUCCGACGAUCGACGUAUUUCAUUAGCUAGUCCACGUCAGCUUUUUAAGGCUUCUAAUAUGACCCAGCGAUGGCAACACAGAGAGAUAUCUAAUUUUGAGUACUUGAUGUUUCUCAACACGAUAGCAGGACCAACAGAGGAUUGAGCAUCA
# B13: chr1:85267750:85267865:-|CDS|ENSG00000142867|unk|total|mutant (ssRNA)
# RNA: GGGAGUUCUACAGUCCGACGAUCAGGAGAAUCCAGCACGACGCCCUUUUUUUCUACUAAUUCUUCUCUGAAUUUGCCUGUUCCCGAAGCCGGCAGAACUGAAAAUACCAUCUUCUCUUCAACUACACUUCCCAGACCUGGGGACAACAGAGGAUUGAGCAUCA
# B14: chr21:29063390:29063550:-|CDS|ENSG00000156261|unk|total|mutant (ssRNA)
# RNA: GGGAGUUCUACAGUCCGACGAUCGUUUACUUGUUUUGCCAGGGAACAGUGUUGAUAAAGACUGCUGAAGAAUUGAUGAAUUUCCGUAAGGGAGAAGAAAACCUCAUGGAUGCACAAGUCAAAGCUAUUGCUGAUACUGGUGCACAACAGAGGAUUGAGCAUCA
# B15: chr9:69711526:69711627:-|3pUTR|ENSG00000188647|unk|FALSE|unique (ssRNA)
# RNA: GGGAGUUCUACAGUCCGACGAUCGAACUGCUGUAGUCUUCUGCAAUCAGUCUCUGUAUUGGUAUAUCCAGUACUAUCGGGUUUAGGUUCUUUUUAUUUUUCCUUAAAUCUUACUUGUUUCUAGCGUCUUAAGAGUGGUAAUGGCAACAGAGGAUUGAGCAUCA
# B16: chr7:158734047:158734148:-|3pUTR|ENSG00000117868|msi1_unk|FALSE|overlapping (ssRNA)
# RNA: GGGAGUUCUACAGUCCGACGAUCCUACCCGGAACACACCCUCUCACAGACGUACCAAUGUUAUUUUUAUAAUUUCAUGGAUUUAGUUAUACAUACCUUAAUAGUUUUAUAAAAUUGUUGACAUUUCAGGCAAAUUUGGCCAAUCAACAGAGGAUUGAGCAUCA
# B17: chr3:179334110:179334217:+|CDS|ENSG00000121864|unk|total|mutant (ssRNA)
# RNA: GGGAGUUCUACAGUCCGACGAUCACAUACAAAAAUUUUUCCUCAUGUUUGUGAUGACUGUGGGAAAGGCUUUUCAAGUAUGCCCGAAUAUUGCAAGCAUUUAAAUUCACAUUUAUCUGAAGGGAUUUAUUUAUGUCAAUAUUGCAACAGAGGAUUGAGCAUCA
# B18: chr7:149103614:149105566:-|CDS|ENSG00000204947|control|control|control (ssRNA)
# RNA: GGGAGUUCUACAGUCCGACGAUCGAGACCCCAGGGCGCUUAGAAAUUCCCACAGGGCCAAGAUGCUAUUCCUGCUAUGUCUGUAGGAAAGUCUUCCAAGUAAGGAGGGAUUUGCUAAAGCACAAACGGAGCCACUCCAAGAGCCAACAGAGGAUUGAGCAUCA
# B19: chr12:52430540:52430705:-|CDS|ENSG00000170454|control|control|control (ssRNA)
# RNA: GGGAGUUCUACAGUCCGACGAUCCAGGUCGGUGACACAUCCGUGGUGCUGUCCAUGGACAACAACCGCAACCUGGACCUGGAUAGUAUCAUCGCCGAGGUCAAAGCACAAUACGAGGACAUUGCCAACCGCAGCCGGGCCGAGCAACAGAGGAUUGAGCAUCA
# B20: chr3:98799072:98799370:-|3pUTR|ENSG00000057019|msi1|FALSE|unique (ssRNA)
# RNA: GGGAGUUCUACAGUCCGACGAUCCAAAGCAUCGUUUUAAAGCACAUGGCCUUUUUUUUUUAAUUAUUAGUGGUAGUAAUAUAUAGAAUGUAUUACAUAACUGUCACUGAAGUGGUUGGGGAAAAUGUGGUGACUGAGGUACAGCAACAGAGGAUUGAGCAUCA
# B21: chr3:48432659:48432768:-|CDS|ENSG00000164051|unk|FALSE|unique (ssRNA)
# RNA: GGGAGUUCUACAGUCCGACGAUCAGUCCCCCGACCAGAGACAGAGAUGUAGAUGUCCUUUCAGCUGCCUUGAAAGAGCAGCUUAGUCAUUCCAGGCAAGUCCAUUCAUGUCUAGAAGGCUUACGAGAGCAGCUUGAUGGCCUACAACAGAGGAUUGAGCAUCA
# B22: chr5:154817497:154817598:+|3pUTR|ENSG00000155506|msi1_unk|FALSE|overlapping (ssRNA)
# RNA: GGGAGUUCUACAGUCCGACGAUCUUAUUGAGAGUAUCUGCUUUCCAGGCUGAAGUGAUUCAUUCAUUAUUCUAGUCCUGCUUUAGUCCUUUGUAAUUUGUGGUAAUUAUGCUUUUCUUUUUAAUACAAAAAAAUGUAUAAAAACAACAGAGGAUUGAGCAUCA
# Biological target: T1, UNK ZnF1-6 (called full-length)
# Test: nsRBNS (natural sequence RNA bind-n-seq); RBNS binding buffer (assumed for nsRBNS): 25 mM Tris pH 7.5, 150 mM KCl, 3 mM MgCl2, 0.01% Triton X-100, 500 ug/ml BSA, 20 U/ml SUPERase-In, 4 C; UNK is unkempt and MSI1 is Musashi-1; names of the RNAs are library labels; protein concentration not given here; high values mean tight binding
row,Binder,binding signal
1,B1,0.303 enrichment R
2,B2,0.668 enrichment R
3,B3,0.262 enrichment R
4,B4,1.43 enrichment R
5,B5,15.6 enrichment R
6,B6,0.411 enrichment R
7,B7,3.04 enrichment R
8,B8,39.5 enrichment R
9,B9,2.16 enrichment R
10,B10,0.387 enrichment R
11,B11,3.62 enrichment R
12,B12,0.548 enrichment R
13,B13,0.604 enrichment R
14,B14,0.432 enrichment R
15,B15,5.54 enrichment R
16,B16,33.1 enrichment R
17,B17,0.481 enrichment R
18,B18,0.58 enrichment R
19,B19,0.641 enrichment R
20,B20,1.95 enrichment R
21,B21,0.616 enrichment R
22,B22,1.93 enrichment R
